Reference: PubChem BioAssay AID504339 (National Center for Advancing Translational Sciences (NCATS), 2011)
Screen size: about 390,000 compounds; about 17,000 (4.4%) were called active. Inconclusive results, whose numbers are uncertain, are shown with a selection of clear calls. Calls come from the whole dose curve; as a rule, active = well fitted inhibition curve with a large enough effect; inconclusive = small, poorly fitted or top-dose-only effect; inactive = no such curve, though single readings can be large or run the other way. A potency beside an inconclusive call is a rough fit, not a confirmed value.

molecular target: Lysine-specific demethylase 4A (Homo sapiens) (UniProt O75164); assay: qHTS Assay for Inhibitors of JMJD2A-Tudor Domain; conditions: AlphaScreen JMJD2A-Tudor / H3K4me3 peptide binding; series mostly up to 114 µM; note: nearly all actives have a fitted effect of over 50% in size
Sequence of UniProt O75164 (O75164 whole entry, looked up, the tested form may be a part): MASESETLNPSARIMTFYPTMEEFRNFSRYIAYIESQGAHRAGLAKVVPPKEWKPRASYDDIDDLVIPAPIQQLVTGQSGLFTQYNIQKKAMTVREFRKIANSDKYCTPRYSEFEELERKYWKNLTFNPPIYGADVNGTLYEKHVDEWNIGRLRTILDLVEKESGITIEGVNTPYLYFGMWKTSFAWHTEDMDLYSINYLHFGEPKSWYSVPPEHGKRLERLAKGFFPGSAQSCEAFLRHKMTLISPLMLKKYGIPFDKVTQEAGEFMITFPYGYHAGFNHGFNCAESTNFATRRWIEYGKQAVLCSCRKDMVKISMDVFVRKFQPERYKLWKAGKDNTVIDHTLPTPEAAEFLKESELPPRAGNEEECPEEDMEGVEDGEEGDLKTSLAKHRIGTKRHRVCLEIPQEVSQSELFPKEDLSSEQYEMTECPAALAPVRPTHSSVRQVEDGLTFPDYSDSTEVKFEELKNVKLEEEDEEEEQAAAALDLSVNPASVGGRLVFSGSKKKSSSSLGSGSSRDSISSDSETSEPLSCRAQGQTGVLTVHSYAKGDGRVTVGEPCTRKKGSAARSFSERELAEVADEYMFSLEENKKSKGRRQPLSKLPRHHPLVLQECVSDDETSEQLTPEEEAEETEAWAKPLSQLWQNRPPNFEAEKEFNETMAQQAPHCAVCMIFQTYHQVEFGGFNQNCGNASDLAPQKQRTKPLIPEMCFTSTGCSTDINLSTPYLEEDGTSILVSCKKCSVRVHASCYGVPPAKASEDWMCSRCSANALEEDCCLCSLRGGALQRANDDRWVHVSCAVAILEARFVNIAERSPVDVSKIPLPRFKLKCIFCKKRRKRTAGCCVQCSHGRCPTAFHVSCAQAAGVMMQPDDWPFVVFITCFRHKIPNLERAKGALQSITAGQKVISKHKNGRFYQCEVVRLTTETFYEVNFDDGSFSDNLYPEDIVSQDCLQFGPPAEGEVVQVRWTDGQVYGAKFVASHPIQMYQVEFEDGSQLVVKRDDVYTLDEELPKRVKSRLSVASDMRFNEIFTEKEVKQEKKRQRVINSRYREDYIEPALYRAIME
Potency is the fitted concentration of half-maximal effect; tags give direction and shape of the fitted curve.

Potency, inactive:
Cc1ccc(C)c(Oc2c(C(F)(F)F)oc3c(CN4CCN(C)CC4)c(O)ccc3c2=O)c1
O=c1[nH]c2ccc(NC(=S)Nc3ccccc3)cc2[nH]1
CN(CCOc1ccc(Cl)cc1)C(=O)c1cc(-c2ccco2)nc2ccccc12
CCCCNc1c(-c2cccc(SC3CCCCC3)c2)nc2ccc(Cl)cn12

Potency, inconclusive:
Oc1ccc(Cl)cc1CNc1cccc2cccnc12 50.1 µM [inhibitor, partial curve]
COc1ccccc1NCCC(=O)OCC(=O)Nc1cc([N+](=O)[O-])ccc1F 79.4 µM [inhibitor, partial curve]
CCOc1ccccc1NC(=O)CSc1nnc(-c2ccccn2)n1Cc1ccco1 89.1 µM [inhibitor, single point]
CCOC(=O)C1=C(CN(C)Cc2ccccc2)NC(=O)NC1c1ccc(OC(C)C)cc1 (stereo unspecified) 11.2 µM [inhibitor, full curve]
COc1cccc(OC)c1C(=O)NC(=S)Nc1ccc2c(c1)OCCO2 50.1 µM [inhibitor, partial curve]
CCc1noc(C)c1C(=O)Nc1nc(-c2ccccc2)cs1 39.8 µM [inhibitor, single point]
Cc1ccc(S(=O)(=O)NCC(c2ccccc2)N2CCN(c3ccc(F)cc3)CC2)cc1 (stereo unspecified) 8.91 µM [inhibitor, full curve]
COC(=O)Cn1cc(/C=C/c2cc[n+](C)cc2)c2ccccc21 15.8 µM [inhibitor, partial curve]
CC(=O)c1cc(-c2ccccc2)[nH]c1N1CCOCC1 50.1 µM [inhibitor, partial curve]
Cc1cc(OC(=O)Cc2cccc3ccccc23)c([N+](=O)[O-])c(=O)[nH]1 35.5 µM [inhibitor, full curve]
O=C(Nc1ccc(NC(=O)C2CCCCC2)nc1)c1ccccn1 3.16 µM [inhibitor, full curve]

Potency, active:
C=CCN1C(=O)/C(=c2\sc3nc(=O)c(Cc4ccccc4)nn3c2=O)c2ccccc21 56.2 µM
C/C(=N\Nc1nc(C)cc(=O)[nH]1)C1CC1 17.8 µM
CC1=NN(c2ccc(C(=O)OC(C)C)cc2)C(=O)/C1=C\C=C\c1ccco1 17.8 µM
COC(=O)c1c(-c2ccccc2)csc1NC(=O)C1CC=CCC1C(=O)O (stereo unspecified) 50.1 µM
CCN(c1ccc(NC(=O)COC(=O)c2ccc3ccccc3n2)cc1)C(C)C 25.1 µM
c1coc(-c2nnc(-c3ccco3)nn2)c1 25.1 µM
